The record followed here is article doi:10.1101/2025.09.25.678639, “The DND1–NANOS3 complex shapes the primordial germ cell transcriptome via a heptanucleotide sequence in mRNA 3′ UTRs”.

Protein sequences, listed by entry. Tags and fused reporters are not part of them. Lines headed by an entry give the natural chain unless they say otherwise; changes in a name come on top.
UniProt P60323: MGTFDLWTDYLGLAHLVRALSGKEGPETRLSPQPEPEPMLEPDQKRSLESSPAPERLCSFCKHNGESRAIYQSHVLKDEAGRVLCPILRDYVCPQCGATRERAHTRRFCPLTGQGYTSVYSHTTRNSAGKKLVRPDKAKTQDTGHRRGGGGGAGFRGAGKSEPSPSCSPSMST
UniProt Q9ULM6: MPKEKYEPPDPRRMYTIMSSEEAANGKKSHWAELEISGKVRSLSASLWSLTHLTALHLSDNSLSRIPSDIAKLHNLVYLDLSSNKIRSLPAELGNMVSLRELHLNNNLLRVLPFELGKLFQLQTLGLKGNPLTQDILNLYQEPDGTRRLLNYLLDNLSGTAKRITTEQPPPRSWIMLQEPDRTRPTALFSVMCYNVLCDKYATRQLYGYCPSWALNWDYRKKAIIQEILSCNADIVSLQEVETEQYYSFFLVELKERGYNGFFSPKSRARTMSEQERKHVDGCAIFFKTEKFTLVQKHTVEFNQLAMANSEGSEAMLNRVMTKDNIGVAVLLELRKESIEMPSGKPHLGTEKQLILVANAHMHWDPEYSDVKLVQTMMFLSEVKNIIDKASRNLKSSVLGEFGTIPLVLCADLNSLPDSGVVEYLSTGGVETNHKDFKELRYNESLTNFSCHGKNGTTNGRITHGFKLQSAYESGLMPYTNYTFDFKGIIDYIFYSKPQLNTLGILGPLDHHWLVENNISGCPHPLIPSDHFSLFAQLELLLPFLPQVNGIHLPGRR

These are yes or no findings as the source states them, for the method shown. Binding seen in cells or lysates may run through a third protein. Some entries that bind do so weakly or less than the wild type. For part of these data: Where a sequence is shown, tags or fusion partners need not be part of it.

The target of assay [1] is FH-DND1–NANOS3-VH complex (human) (UniProt Q8IYX4+P60323). Description: co-IP; tandem IP from 4SU-labelled, UV-crosslinked NANOS3-VH-P2A-FH-DND1 HEK293 cells; lysate treated with RNase T1; first IP on V5-agarose (NANOS3-VH), elution with V5 peptide, second IP on anti-FLAG M2 magnetic beads (FH-DND1); washes with NP-40 lysis buffer and 500 mM NaCl buffer; Western blot. In general terms: A western blot detects proteins with antibodies after separation by electrophoresis.

Assay [2] concerns the target C-terminally V5- and HA-tagged NANOS3 (human) (UniProt P60323). Kind of assay: co-IP; lysates of doxycycline-induced Flp-In T-REx HEK293 cells co-expressing NANOS3-VH-P2A-FH-DND1 (wild type, point mutants or deletions); mutant panel: IP with anti-V5 antibody (NANOS3), blot for co-immunoprecipitated DND1, two independent experiments.
Another assay concerns the target NANOS3-VH F108A (human) (UniProt P60323). Described as above.
Another assay addresses NANOS3-VH H63A (human) (UniProt P60323). The assay is described as above.
For another assay, the target named is NANOS3-VH K77A (human) (UniProt P60323). Described as above.
Another assay addresses NANOS3-VH Y91A (human) (UniProt P60323). Described as above.

With CNOT6 (from UniProt Q9ULM6 1-557), the binding entry in assay [1] was “binds”.

B1: FH-DND1 K196A (protein, UniProt Q8IYX4 1-353)
chain: MQSKRDCELWCERVNPENKAALEAWVRETGIRLVQVNGQRKYGGPPPGWVGSPPPAGSEVFIGRLPQDVYEHQLIPLFQRVGRLYEFRLMMTFSGLNRGFAYARYSSRRGAQAAIATLHNHPLRPSCPLLVCRSTEKCELSVDGLPPNLTRSALLLALQPLGPGLQEARLLPSPGPAPGQIALLKFSSHRAAAMAAKALVEGQSHLCGEQVAVEWLKPDLKQRLRQQLVGPFLRSPQPEGSQLALARDKLGFQGARATLQLLCQRMKLGSPVFLTKCLGIGPAGWHRFWYQVVIPGHPVPFSGLIWVVLTLDGRDGHEVAKDAVSVRLLQALSESGANLLWSAGAEAGTMVKQ
Regarding B1, the binding result in assay [2] was “no binding”.

B2: N-terminally FLAG- and hemagglutinin (HA)-tagged DND1 (protein, UniProt Q8IYX4 1-353)
chain: MQSKRDCELWCERVNPENKAALEAWVRETGIRLVQVNGQRKYGGPPPGWVGSPPPAGSEVFIGRLPQDVYEHQLIPLFQRVGRLYEFRLMMTFSGLNRGFAYARYSSRRGAQAAIATLHNHPLRPSCPLLVCRSTEKCELSVDGLPPNLTRSALLLALQPLGPGLQEARLLPSPGPAPGQIALLKFSSHRAAAMAKKALVEGQSHLCGEQVAVEWLKPDLKQRLRQQLVGPFLRSPQPEGSQLALARDKLGFQGARATLQLLCQRMKLGSPVFLTKCLGIGPAGWHRFWYQVVIPGHPVPFSGLIWVVLTLDGRDGHEVAKDAVSVRLLQALSESGANLLWSAGAEAGTMVKQ
As for B2, the binding entry with NANOS3-VH F108A (human), with NANOS3-VH H63A (human), with NANOS3-VH K77A (human) and with NANOS3-VH Y91A (human) was “no binding” in each case.

B3: FH-DND1 K197A (protein, UniProt Q8IYX4 1-353)
chain: MQSKRDCELWCERVNPENKAALEAWVRETGIRLVQVNGQRKYGGPPPGWVGSPPPAGSEVFIGRLPQDVYEHQLIPLFQRVGRLYEFRLMMTFSGLNRGFAYARYSSRRGAQAAIATLHNHPLRPSCPLLVCRSTEKCELSVDGLPPNLTRSALLLALQPLGPGLQEARLLPSPGPAPGQIALLKFSSHRAAAMAKAALVEGQSHLCGEQVAVEWLKPDLKQRLRQQLVGPFLRSPQPEGSQLALARDKLGFQGARATLQLLCQRMKLGSPVFLTKCLGIGPAGWHRFWYQVVIPGHPVPFSGLIWVVLTLDGRDGHEVAKDAVSVRLLQALSESGANLLWSAGAEAGTMVKQ
Regarding B3, the binding entry in assay [2] is on record as “no binding”.

B4: FH-DND1 F61A (protein, UniProt Q8IYX4 1-353)
chain: MQSKRDCELWCERVNPENKAALEAWVRETGIRLVQVNGQRKYGGPPPGWVGSPPPAGSEVAIGRLPQDVYEHQLIPLFQRVGRLYEFRLMMTFSGLNRGFAYARYSSRRGAQAAIATLHNHPLRPSCPLLVCRSTEKCELSVDGLPPNLTRSALLLALQPLGPGLQEARLLPSPGPAPGQIALLKFSSHRAAAMAKKALVEGQSHLCGEQVAVEWLKPDLKQRLRQQLVGPFLRSPQPEGSQLALARDKLGFQGARATLQLLCQRMKLGSPVFLTKCLGIGPAGWHRFWYQVVIPGHPVPFSGLIWVVLTLDGRDGHEVAKDAVSVRLLQALSESGANLLWSAGAEAGTMVKQ
With B4, in assay [2], the binding entry is given as “no binding”.

B5: FH-DND1 Δ1-12 (domain or fragment, UniProt Q8IYX4 13-353)
chain: RVNPENKAALEAWVRETGIRLVQVNGQRKYGGPPPGWVGSPPPAGSEVFIGRLPQDVYEHQLIPLFQRVGRLYEFRLMMTFSGLNRGFAYARYSSRRGAQAAIATLHNHPLRPSCPLLVCRSTEKCELSVDGLPPNLTRSALLLALQPLGPGLQEARLLPSPGPAPGQIALLKFSSHRAAAMAKKALVEGQSHLCGEQVAVEWLKPDLKQRLRQQLVGPFLRSPQPEGSQLALARDKLGFQGARATLQLLCQRMKLGSPVFLTKCLGIGPAGWHRFWYQVVIPGHPVPFSGLIWVVLTLDGRDGHEVAKDAVSVRLLQALSESGANLLWSAGAEAGTMVKQ
Regarding B5, the binding entry in assay [2] is on record as “no binding”.
